Measurements from article PMC10427645, “Extracellular Pgk1 interacts neural membrane protein enolase-2 to improve the neurite outgrowth of motor neurons” (Communications Biology, 2023).
No constants are given. Whether binding was seen depends on the method and setting. In cells and extracts the contact can be indirect. Some entries that bind do so weakly or less than the wild type. Tags and fused reporters may be left off the sequences shown.

The chains behind the UniProt entries cited, without tags or fusion partners.
UniProt P17183: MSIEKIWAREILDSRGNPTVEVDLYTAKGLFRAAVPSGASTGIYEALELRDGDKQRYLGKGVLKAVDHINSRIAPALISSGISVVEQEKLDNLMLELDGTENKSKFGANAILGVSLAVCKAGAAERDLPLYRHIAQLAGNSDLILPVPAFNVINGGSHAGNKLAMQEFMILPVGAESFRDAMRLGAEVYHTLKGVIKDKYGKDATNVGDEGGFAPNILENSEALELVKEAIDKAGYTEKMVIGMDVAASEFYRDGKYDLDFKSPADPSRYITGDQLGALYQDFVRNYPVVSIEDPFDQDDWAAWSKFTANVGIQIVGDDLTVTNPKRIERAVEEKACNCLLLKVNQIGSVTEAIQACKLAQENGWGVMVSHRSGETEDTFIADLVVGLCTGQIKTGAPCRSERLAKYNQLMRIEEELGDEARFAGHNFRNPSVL

T1: Eno1-Myc (mouse Enolase-1 fused with Myc) (mouse), P17182
T1 chain: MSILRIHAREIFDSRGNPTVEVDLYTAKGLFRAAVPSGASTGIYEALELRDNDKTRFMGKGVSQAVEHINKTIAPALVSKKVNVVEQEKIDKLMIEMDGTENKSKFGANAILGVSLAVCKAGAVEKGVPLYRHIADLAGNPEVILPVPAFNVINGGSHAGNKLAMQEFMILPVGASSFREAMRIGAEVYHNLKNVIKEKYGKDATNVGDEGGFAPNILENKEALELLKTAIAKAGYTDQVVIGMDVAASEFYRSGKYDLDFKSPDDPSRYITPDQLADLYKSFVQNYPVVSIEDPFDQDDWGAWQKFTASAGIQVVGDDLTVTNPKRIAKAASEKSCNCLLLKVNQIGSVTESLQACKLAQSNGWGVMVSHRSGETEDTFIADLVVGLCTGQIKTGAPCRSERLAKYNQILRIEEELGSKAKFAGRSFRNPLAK

B1: Pgk1(325–417)-Flag (domain or fragment, UniProt P09411 325-417)
chain: AEAVGRAKQIVWNGPVGVFEWEAFARGTKSLMDEVVKATSRGCITIIGGGDTATCCAKWNTEDKVSHVSTGGGASLELLEGKVLPGVDALSNV
B2: Pgk1(146–417)-Flag (domain or fragment, UniProt P09411 146-417)
chain: KIDAFRASLSKLGDVYVNDAFGTAHRAHSSMVGVNLPQKAGGFLMKKELNYFAKALESPERPFLAILGGAKVADKIQLINNMLDKVNEMIIGGGMAFTFLKVLNNMEIGTSLYDEEGAKIVKDLMSKAEKNGVKITLPVDFVTADKFDENAKTGQATVASGIPAGWMGLDCGTESSKKYAEAVGRAKQIVWNGPVGVFEWEAFARGTKSLMDEVVKATSRGCITIIGGGDTATCCAKWNTEDKVSHVSTGGGASLELLEGKVLPGVDALSNV
B3: Pgk1(225–417)-Flag (domain or fragment, UniProt P09411 225-417)
chain: NNMLDKVNEMIIGGGMAFTFLKVLNNMEIGTSLYDEEGAKIVKDLMSKAEKNGVKITLPVDFVTADKFDENAKTGQATVASGIPAGWMGLDCGTESSKKYAEAVGRAKQIVWNGPVGVFEWEAFARGTKSLMDEVVKATSRGCITIIGGGDTATCCAKWNTEDKVSHVSTGGGASLELLEGKVLPGVDALSNV
B4: Pgk1(1–145)-Flag (domain or fragment, UniProt P09411 1-145)
chain: MSLSNKLTLDKLDVKGKRVVMRVDFNVPMKNNQITNNQRIKAAVPSIKFCLDNGAKSVVLMSHLGRPDGVPMPDKYSLEPVAAELKSLLGKDVLFLKDCVGPEVENACANPAAGTVILLENLRFHVEEEGKGKDASGNKVKAEPA
B5: recombinant mouse Pgk1 fused with Flag (Pgk1-Flag), P09411 1-417 (protein)
chain: MSLSNKLTLDKLDVKGKRVVMRVDFNVPMKNNQITNNQRIKAAVPSIKFCLDNGAKSVVLMSHLGRPDGVPMPDKYSLEPVAAELKSLLGKDVLFLKDCVGPEVENACANPAAGTVILLENLRFHVEEEGKGKDASGNKVKAEPAKIDAFRASLSKLGDVYVNDAFGTAHRAHSSMVGVNLPQKAGGFLMKKELNYFAKALESPERPFLAILGGAKVADKIQLINNMLDKVNEMIIGGGMAFTFLKVLNNMEIGTSLYDEEGAKIVKDLMSKAEKNGVKITLPVDFVTADKFDENAKTGQATVASGIPAGWMGLDCGTESSKKYAEAVGRAKQIVWNGPVGVFEWEAFARGTKSLMDEVVKATSRGCITIIGGGDTATCCAKWNTEDKVSHVSTGGGASLELLEGKVLPGVDALSNV

What was measured:
[1] = molecular target: Eno2-Myc (mouse Enolase-2 fused with Myc) (mouse) (UniProt P17183); assay: cross-linking + co-IP; cell surface crosslinking-IP: Sf21 cells expressing the Myc-tagged protein incubated 2 h with recombinant Flag-tagged Pgk1 or fragment in the medium, BS3 cross-linking, lysates immunoprecipitated with anti-Flag or anti-Myc beads, western blot with anti-Flag and anti-Myc; only the binder purified
[2] = molecular target: T1, Eno1-Myc (mouse Enolase-1 fused with …); assay: as above; settings: remark: other sources report otherwise

Binder | binding [1] | binding [2]
B1 | binds | 
B2 | binds | 
B3 | binds | 
B4 | no binding | 
B5 |  | no binding
